Measured values taken from a collection of fitness landscapes (doi:10.1016/j.celrep.2020.107928).
Over roughly 81,000 sequences, “one-hybrid fitness for binding parS DNA” has its median near -0.17; the highest 2% begin near 0.51. The list shows a part of the results.

B1: Caulobacter ParB omega fusion; a variant is named by its letters at X, in order, B8GW30 (parent)
chain: MESVVVGEPGMSEGRRGLGRGLSALLGEVDAAPAQAPGEQLGGSREAPIEILQRNPDQPRRTFREEDLEDLSNSIREKGVLQPILVRPSPDTAGEYQIVAGERAWRAAQRAGLKTVPIMVRELDDLAVLEIGIIENVQRADLNVLEEALSYKVLMEKFERTQENIAQTIGKSXSHVANXMRLLXLPDEVQSYLVSGELTAXHARAIAAAADPVALAKQIIEGGLSVRETEALARKAPNLSAGKSKGGRPPRVKDTDTQALESDLSSVLGLDVSIDHRGSTGTLTITYATLEQLDDLCNRLTRGI

Variants of: B1
Experiment: one-hybrid fitness for binding parS DNA (scaled: cognate 1, non-cognate 0); higher = stronger binding
Conditions: with parS DNA site
Outline: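 Caulobacter ParB libraries with four specificity codons randomised were screened by bacterial one-hybrid selection in the E. coli USO strain, using a HIS3 reporter whose site lies 19 bp from the promoter. Selection ran for 48 hours at 37°C on M9 lacking histidine, with 0.1 mM IPTG and 5 mM 3-AT. Plasmids were Illumina-sequenced before and after selection, three replicate libraries were pooled, and variants with under 10 reads were dropped. Fitness is the log change in each variant's read ratio to wild type, rescaled against the cognate and non-cognate sites.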

| Variant | one-hybrid fitness for binding parS DNA |
| --- | --- |
| HETH | ≤ 0.2 |
| TRAN | ≤ 0.2 |
| PSSM | ≤ 0.2 |
| RPAS | ≤ 0.2 |
| IPEV | ≤ 0.2 |
| HNMT | ≤ 0.2 |
| DDRT | ≤ 0.2 |
| QKTN | ≤ 0.2 |
| IVLC | ≤ 0.2 |
| QGPF | ≤ 0.2 |
| NQFL | ≤ 0.2 |
| HVLY | ≤ 0.2 |
| NRLG | ≤ 0.2 |
| AGGT | ≤ 0.2 |
| EWTA | ≤ 0.2 |
| RRKM | 0.802 |
| IGQS | ≤ 0.2 |
| RWET | 0.437 |
| QGVC | ≤ 0.2 |
| CCEL | ≤ 0.2 |
| REDF | ≤ 0.2 |
| IRVI | ≤ 0.2 |
| HMEG | ≤ 0.2 |
| PYFR | ≤ 0.2 |

| Variant | one-hybrid fitness for binding parS DNA |
| --- | --- |
| PTHY | ≤ 0.2 |
| THGD | ≤ 0.2 |
| HQRP | ≤ 0.2 |
| WRRG | ≤ 0.2 |
| GQLL | ≤ 0.2 |
| ENCS | ≤ 0.2 |
| KPDF | ≤ 0.2 |
| TEVR | ≤ 0.2 |
| NGVM | ≤ 0.2 |
| HWMR | ≤ 0.2 |
| GANS | ≤ 0.2 |
| EIKS | ≤ 0.2 |
| TGLI | ≤ 0.2 |
| GRRA | ≤ 0.2 |
| LTFG | ≤ 0.2 |
| YVWR | ≤ 0.2 |
| HLQG | ≤ 0.2 |
| TMRL | ≤ 0.2 |
| YETI | ≤ 0.2 |
| MHPM | ≤ 0.2 |
| DCDR | ≤ 0.2 |
| MEWS | ≤ 0.2 |
| VHKK | ≤ 0.2 |
| TFSM | ≤ 0.2 |

| Variant | one-hybrid fitness for binding parS DNA |
| --- | --- |
| PGRE | ≤ 0.2 |
| NKPG | ≤ 0.2 |
| FLVR | ≤ 0.2 |
| FRGT | ≤ 0.2 |
| MSAG | ≤ 0.2 |
| VTFA | ≤ 0.2 |
| WLHR | ≤ 0.2 |
| SVGG | ≤ 0.2 |
| FRPG | ≤ 0.2 |
| GFHS | ≤ 0.2 |
| PHHN | ≤ 0.2 |
| GMFS | ≤ 0.2 |
| CVFI | ≤ 0.2 |
| YNGT | ≤ 0.2 |
| RWYA | 0.348 |
| AYFT | ≤ 0.2 |
| PVIR | ≤ 0.2 |
| QNYW | ≤ 0.2 |
| NMKF | ≤ 0.2 |
| EPFS | ≤ 0.2 |
| AARK | ≤ 0.2 |
| LNIS | ≤ 0.2 |
| FCKT | ≤ 0.2 |
| IFAG | ≤ 0.2 |

| Variant | one-hybrid fitness for binding parS DNA |
| --- | --- |
| KRMT | ≤ 0.2 |
| GRTN | ≤ 0.2 |
| DQSC | ≤ 0.2 |
| LTSI | ≤ 0.2 |
| NAQA | ≤ 0.2 |
| HKTV | ≤ 0.2 |
| LSTV | ≤ 0.2 |
| EHNT | ≤ 0.2 |
| HSGF | ≤ 0.2 |
| PQKF | ≤ 0.2 |
| SVDT | ≤ 0.2 |
| IGSS | ≤ 0.2 |
| PATF | ≤ 0.2 |
| QNLT | ≤ 0.2 |
| SILS | ≤ 0.2 |
| RMSW | 0.229 |
| QEHS | ≤ 0.2 |
| QHFM | ≤ 0.2 |
| RHTG | 0.967 |
| YFHR | ≤ 0.2 |
| GRWV | ≤ 0.2 |
| IPLW | ≤ 0.2 |
| RSDD | ≤ 0.2 |
| FANN | ≤ 0.2 |

| Variant | one-hybrid fitness for binding parS DNA |
| --- | --- |
| GISK | 0.234 |
| QMEH | ≤ 0.2 |
| HNYC | ≤ 0.2 |
| HVFG | ≤ 0.2 |
| PISQ | ≤ 0.2 |
| REHL | ≤ 0.2 |
| FAKW | ≤ 0.2 |
| SAPP | ≤ 0.2 |
| EGKS | ≤ 0.2 |
| DPRW | ≤ 0.2 |
| TRCA | ≤ 0.2 |
| SSPL | ≤ 0.2 |
| SFHK | ≤ 0.2 |
| GPTL | ≤ 0.2 |
| DAKC | ≤ 0.2 |
| HYPS | ≤ 0.2 |
| RFSR | ≤ 0.2 |
| HIMS | ≤ 0.2 |
| MPTP | ≤ 0.2 |
| TIVC | ≤ 0.2 |
| EAAY | ≤ 0.2 |
| SNKH | ≤ 0.2 |
| EWVS | ≤ 0.2 |
| KVSM | ≤ 0.2 |

| Variant | one-hybrid fitness for binding parS DNA |
| --- | --- |
| HWVK | ≤ 0.2 |
| YLDS | ≤ 0.2 |
| GFQQ | ≤ 0.2 |
| LKRN | ≤ 0.2 |
| VCPT | ≤ 0.2 |
| SRWP | ≤ 0.2 |
| EWTF | ≤ 0.2 |
| RRLY | 0.279 |
| RQRK | ≤ 0.2 |
| KNWL | ≤ 0.2 |
| PEIG | ≤ 0.2 |
| RHMC | 0.908 |
| QFIF | ≤ 0.2 |
| ADRY | ≤ 0.2 |
| YEAW | 0.349 |
| ECGL | ≤ 0.2 |
| MPEC | ≤ 0.2 |
| MTDL | ≤ 0.2 |
| CWVS | 0.21 |
| PGKP | ≤ 0.2 |
| LADG | ≤ 0.2 |
| RNLQ | ≤ 0.2 |
| SWEP | ≤ 0.2 |
| VRSA | ≤ 0.2 |

| Variant | one-hybrid fitness for binding parS DNA |
| --- | --- |
| PGPC | ≤ 0.2 |
| DTRL | ≤ 0.2 |
| GGPI | ≤ 0.2 |
| SPCP | ≤ 0.2 |
| QIGR | ≤ 0.2 |
| TMVP | ≤ 0.2 |
| FNAY | ≤ 0.2 |
| PTGH | ≤ 0.2 |
| VLTS | ≤ 0.2 |
| ASAA | ≤ 0.2 |
| IRWR | ≤ 0.2 |
| GIQS | ≤ 0.2 |
| ANPV | ≤ 0.2 |
| QMTR | ≤ 0.2 |
| WLQC | ≤ 0.2 |
| ITIN | ≤ 0.2 |
| RVHM | 0.314 |
| ARSQ | ≤ 0.2 |
| TNRY | ≤ 0.2 |
| LGDT | ≤ 0.2 |
| SERV | ≤ 0.2 |
| AECV | ≤ 0.2 |
| NCAL | ≤ 0.2 |
| QLEN | ≤ 0.2 |

| Variant | one-hybrid fitness for binding parS DNA |
| --- | --- |
| RWTT | 0.705 |
| VPRD | ≤ 0.2 |
| CSRG | ≤ 0.2 |
| QRWD | ≤ 0.2 |
| MNAR | ≤ 0.2 |
| NHKA | ≤ 0.2 |
| QDTL | ≤ 0.2 |
| WSPV | ≤ 0.2 |
| FIPT | ≤ 0.2 |
| PQYC | ≤ 0.2 |
| DMGG | ≤ 0.2 |
| CCPH | ≤ 0.2 |
| YNKG | ≤ 0.2 |
| EYQT | ≤ 0.2 |
| DSKG | ≤ 0.2 |
| WRKY | ≤ 0.2 |
| MVAR | ≤ 0.2 |
| ESPP | ≤ 0.2 |
| WWKT | ≤ 0.2 |
| RNKE | ≤ 0.2 |
| RQKF | 0.328 |
| VMSG | ≤ 0.2 |
| EGMA | ≤ 0.2 |
| FIIS | ≤ 0.2 |

| Variant | one-hybrid fitness for binding parS DNA |
| --- | --- |
| QATY | ≤ 0.2 |
| IRVM | ≤ 0.2 |
| RWRM | 0.31 |
| RYFR | ≤ 0.2 |
| RQQP | ≤ 0.2 |
| RTRS | 0.83 |
| PKTD | ≤ 0.2 |
| EVNR | ≤ 0.2 |
| QQIA | ≤ 0.2 |
| QDNR | ≤ 0.2 |
| ITYL | ≤ 0.2 |
| SPRP | ≤ 0.2 |
| LEAA | ≤ 0.2 |
| YDSC | ≤ 0.2 |
| RLRG | 0.966 |
| RFRV | ≤ 0.2 |
| FACW | ≤ 0.2 |
| CLNT | ≤ 0.2 |
| MTGR | ≤ 0.2 |
| RPIL | ≤ 0.2 |
| NGPL | ≤ 0.2 |
| RDRY | ≤ 0.2 |
| IATK | ≤ 0.2 |
| AKPM | ≤ 0.2 |

| Variant | one-hybrid fitness for binding parS DNA |
| --- | --- |
| EMMS | ≤ 0.2 |
| HKMC | ≤ 0.2 |
| QIRW | ≤ 0.2 |
| RCRL | ≤ 0.2 |
| RSCV | ≤ 0.2 |
| CHTP | ≤ 0.2 |
| WPMC | ≤ 0.2 |
| SGDY | ≤ 0.2 |
| LPDM | ≤ 0.2 |
| TVHT | ≤ 0.2 |
| YYSE | ≤ 0.2 |
| LCAL | ≤ 0.2 |
| PNNK | ≤ 0.2 |
| EQKT | ≤ 0.2 |
| VVYY | ≤ 0.2 |
| WDAT | ≤ 0.2 |
| LTHT | ≤ 0.2 |
| SIPC | ≤ 0.2 |
| QMNM | ≤ 0.2 |
| AHGC | ≤ 0.2 |
| PAFY | ≤ 0.2 |
| ADLI | ≤ 0.2 |
| WPCR | ≤ 0.2 |
| NLQT | ≤ 0.2 |

| Variant | one-hybrid fitness for binding parS DNA |
| --- | --- |
| RRAE | ≤ 0.2 |
| GYRR | ≤ 0.2 |
| NNQS | ≤ 0.2 |
| LNRT | ≤ 0.2 |
| GQVS | ≤ 0.2 |
| QDQG | ≤ 0.2 |
| TCVM | ≤ 0.2 |
| WHNL | ≤ 0.2 |
| YPFG | ≤ 0.2 |
| RNTS | 0.964 |
| TQQW | ≤ 0.2 |
| PNQS | ≤ 0.2 |
| TPTY | ≤ 0.2 |
| TCMC | ≤ 0.2 |
| FCRM | ≤ 0.2 |
| VSQG | ≤ 0.2 |
| PCTR | ≤ 0.2 |
| LHNC | ≤ 0.2 |
| KIAG | ≤ 0.2 |
| CWPI | ≤ 0.2 |
| SMTN | ≤ 0.2 |
| LVYC | ≤ 0.2 |
| TFTM | ≤ 0.2 |
| FCKS | ≤ 0.2 |

| Variant | one-hybrid fitness for binding parS DNA |
| --- | --- |
| AASF | ≤ 0.2 |
| HAPV | ≤ 0.2 |
| RQIG | 0.805 |
| MYVG | ≤ 0.2 |
| LQTI | ≤ 0.2 |
| CHES | ≤ 0.2 |
| LVNE | ≤ 0.2 |
| QAWF | ≤ 0.2 |
| DNCR | ≤ 0.2 |
| RGNI | ≤ 0.2 |
| TRQA | ≤ 0.2 |
| KAFT | ≤ 0.2 |
| GWAR | ≤ 0.2 |
| RKRE | ≤ 0.2 |
| IKLD | ≤ 0.2 |
| LAYY | ≤ 0.2 |
| RWPD | ≤ 0.2 |
| QFIA | ≤ 0.2 |
| SDSY | ≤ 0.2 |
| WREC | ≤ 0.2 |
| PCAG | ≤ 0.2 |
| LYHY | ≤ 0.2 |
| NKRR | ≤ 0.2 |
| RAEW | ≤ 0.2 |

| Variant | one-hybrid fitness for binding parS DNA |
| --- | --- |
| HEWT | ≤ 0.2 |
| APQE | ≤ 0.2 |
| CYAS | ≤ 0.2 |
| IHHS | ≤ 0.2 |
| IMPL | ≤ 0.2 |
| QLTE | ≤ 0.2 |
| CGNV | 0.225 |
| ERGC | ≤ 0.2 |
| CGDK | ≤ 0.2 |
| VWAS | ≤ 0.2 |
| WKDY | ≤ 0.2 |
| ESFE | ≤ 0.2 |
| CLLM | ≤ 0.2 |
| LLQQ | ≤ 0.2 |
| RIMT | 0.878 |
| IVVG | ≤ 0.2 |
| AQRP | ≤ 0.2 |
| RVTN | 0.432 |
